Inconclusive means that the source gave no clear call. Such entries were picked first, then a sample of the others. Potencies of inconclusive entries are doubtful fits and often do not repeat. Calls of active or inactive are those of the source. The call rests on the fitted dose curve; in most records, active means well fitted cell-killing curve with a large enough effect; inconclusive means small, poorly fitted or top-dose-only effect, or effect the other way; inactive means flat fitted curve, though single readings scatter.
These compounds were tested on SKOV3 (assay: Primary qHTS to identify gynecologic anti-cancer compounds using libraries of approved drugs and bioactive compounds (AID 1345084; further: nearly all actives have a fitted effect of over 55% in size)). Settings: Gynecologic cancer cell panel viability, ATPlite luminescence, 48 h; series mostly up to 57.5 µM; activity change, negative = cytotoxicity: at the top concentration.
Summary of the method: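 Five-point cytotoxicity, 48 h drug exposure at 37 C, 5% CO2, on cells seeded 16 h beforehand. ATP content read by ATPlite luminescence.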
On the % scale 0 is the no-effect control and ±100 the full control effect; potency means the concentration at half of the fitted maximal effect; tags describe the fitted curve by direction and shape.

Row | Structure (SMILES) | Potency | activity change, negative = cytotoxicity
1 | CCC1=CC2CN3CCc4c([nH]c5ccccc45)[C@@](C(=O)OC)(C2)[C@@H]13 | inconclusive: 31.6 µM [cytotoxic, partial curve, poor fit] | –
2 | CCCN(CCC)[C@@H]1CCc2ccc3[nH]c(C#N)cc3c2C1 | inconclusive: 0.316 µM [rising, single point] | –
3 | O=c1oc2ccccc2c(O)c1Cc1c(O)c2ccccc2oc1=O | – | inactive: -6.92%
4 | c1ccc2c(c1)Nc1ccccc1S2 | inconclusive: 7.94 µM [cytotoxic, full curve, poor fit] | –
5 | CC(=O)OC1CC(O)C(C)(C)C2CC(OC(C)=O)C3(C)C(CCC4(C)C(c5ccoc5)C(=O)C5OC543)C12C (stereo not drawn) | – | inactive: 10.6% [at 25.3 µM]
6 | Cn1c(CCCC(=O)O)nc2cc(N(CCCl)CCCl)ccc21 | – | inactive: 21.3%
7 | CN1CC[C@]23c4c5ccc(O)c4O[C@H]2[C@@H](O)C=C[C@H]3[C@H]1C5 | – | inactive: -4.46% [at 116 µM]
8 | CC(=O)C1CCC2C3CCC4C[C@@H](O)CCC4(C)C3CCC12C (stereo partly drawn) | inconclusive: 7.08 µM [rising, single point] | –
9 | C/C=C1/CN2CC[C@]34C(=Nc5ccccc53)[C@@H]2C[C@@H]1[C@H]4C(=O)OC | – | inactive: -2.34% [at 38.5 µM]
10 | FC(F)(F)c1ccc(N2CCNCC2)nc1Cl | – | inactive: 0%
11 | O=c1oc2ccccc2c(O)c1C(CC(O)c1ccc(-c2ccc(Br)cc2)cc1)c1ccccc1 (stereo not drawn) | – | inactive: 30.5%
12 | CCC(C(N)=O)N1CCCC1=O (stereo not drawn) | inconclusive: 1.41 µM [cytotoxic, single point] | –
13 | O=C(CCl)c1ccc(Cl)cc1Cl | – | inactive: -9.18%
14 | O=C(O)c1ccnc2cc(C(OCCN3CCCCC3)c3ccccc3Cl)[nH]c12 (stereo not drawn) | inconclusive: 25.1 µM [rising, single point] | –
15 | ClC1=C(Cl)[C@]2(Cl)[C@@H]3[C@@H]4C[C@@H]([C@H]5O[C@@H]45)[C@@H]3[C@@]1(Cl)C2(Cl)Cl | inconclusive: 25.1 µM [rising, partial curve, poor fit] | –
16 | CN1C(=O)CN=C(c2ccccc2)c2cc(Cl)ccc21 | inconclusive: 28.2 µM [cytotoxic, single point] | –
17 | N#Cc1ccc(N2CCN(C(=O)COc3ccc4[nH]cc(CCN)c4c3)CC2)cc1 | – | inactive: 13.5%

Row | Structure (SMILES) | Potency | activity change, negative = cytotoxicity
18 | COC(=O)C12C(=O)C(C)(O)C(=O)C1(C)C(C)=CC1C34CCC(OC3=O)C(C)(C)C4CCC12C (stereo not drawn) | – | inactive: 3.66% [at 25.3 µM]
19 | C[C@]12CCC(=O)C=C1CC[C@@H]1[C@@H]2[C@@H](O)C[C@]2(C)C(=O)CC[C@@H]12 | – | inactive: 5.42%
20 | COc1ccc(CN(C(=O)[C@@H](N)Cc2c(C)cc(C(N)=O)cc2C)[C@@H](C)c2ncc(-c3ccccc3)[nH]2)cc1C(=O)O | – | inactive: 19.7%
21 | O=S(=O)(c1ccc(Cl)cc1)c1ccc(Cl)cc1 | inconclusive: 0.355 µM [rising, full curve, poor fit] | –
22 | CN1C(=S)CN=C(c2ccccc2)c2cc(Cl)ccc21 | – | inactive: -8.51%
23 | Nc1ccc(Cl)cc1N | inconclusive: 70.8 µM [cytotoxic, single point] | –
24 | C=C1C[C@]2(O)[C@@]3(C)CCC(=O)C(C)(C)C3=C(O)C(=O)[C@@]2(C)[C@@H]2C(=O)O[C@@](C)(C(=O)OC)C(=O)[C@@]12C | – | inactive: 4.01% [at 25.3 µM]
25 | O=C(O)c1cc(Oc2ccc(C(F)(F)F)cc2Cl)ccc1[N+](=O)[O-] | – | inactive: 3.59%
26 | CCCCCCCCCC(CC)c1ccc(S(=O)(=O)O)cc1 (stereo not drawn) | inconclusive: 0.631 µM [cytotoxic, full curve, poor fit] | –
27 | CC(=O)O[C@H]1C[C@@H](OC(C)=O)C(C)(C)C2C[C@@H](O)[C@]3(C)C(CC[C@@]4(C)[C@H](C5=CC(=O)OC5O)C[C@H]5O[C@]543)[C@]21C (stereo partly drawn) | – | inactive: 2.19% [at 25.3 µM]
28 | CCC1(CC)C(=O)NC(=O)NC1=O | – | inactive: 2.05%
29 | CC1=C2[C@H]3OC(=O)[C@@H](C)[C@@H]3CC[C@@]2(C)C=CC1=O | – | inactive: -0.934%
30 | CC(C)=CCOc1c2occc2cc2ccc(=O)oc12 | inconclusive: 39.8 µM [cytotoxic, single point] | –
31 | C[N@@+]1(CC2CC2)CC[C@]23c4c5ccc(O)c4O[C@H]2C(=O)CC[C@@]3(O)[C@H]1C5 | inconclusive: 7.08 µM [rising, single point] | –
32 | O=C(NCCN1CCC2(CC1)C(=O)NCN2c1cccc(F)c1)c1ccc2ccccc2c1 | inconclusive: 39.8 µM [cytotoxic, single point] | –
33 | CN1C(=O)CN=C(c2ccccc2)c2cc([N+](=O)[O-])ccc21 | inconclusive: 1.41 µM [cytotoxic, single point] | –
